In paper PMC10188589:
These are yes or no findings as the source states them, for the method shown. Binding seen in cells or lysates may run through a third protein. Some binding calls cover weakened binding; strength is not graded here.

Chains of the proteins cited; added tags and fusions are not shown. Lines headed by an entry give the natural chain unless they say otherwise; changes in a name come on top.
UniProt Q8N884: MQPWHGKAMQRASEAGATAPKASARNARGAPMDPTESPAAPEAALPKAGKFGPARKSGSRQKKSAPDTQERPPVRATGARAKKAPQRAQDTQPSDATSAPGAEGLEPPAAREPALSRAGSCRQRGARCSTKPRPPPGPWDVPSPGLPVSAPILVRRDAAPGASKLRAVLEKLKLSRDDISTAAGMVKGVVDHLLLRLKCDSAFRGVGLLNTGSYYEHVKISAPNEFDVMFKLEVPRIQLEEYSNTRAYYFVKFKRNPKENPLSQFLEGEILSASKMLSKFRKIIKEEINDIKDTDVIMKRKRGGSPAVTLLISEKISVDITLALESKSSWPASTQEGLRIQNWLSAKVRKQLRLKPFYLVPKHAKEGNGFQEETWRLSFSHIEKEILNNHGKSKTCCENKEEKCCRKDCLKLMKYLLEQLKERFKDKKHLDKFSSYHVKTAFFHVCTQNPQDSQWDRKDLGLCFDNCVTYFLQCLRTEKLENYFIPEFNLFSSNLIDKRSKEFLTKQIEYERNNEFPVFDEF
UniProt Q99873: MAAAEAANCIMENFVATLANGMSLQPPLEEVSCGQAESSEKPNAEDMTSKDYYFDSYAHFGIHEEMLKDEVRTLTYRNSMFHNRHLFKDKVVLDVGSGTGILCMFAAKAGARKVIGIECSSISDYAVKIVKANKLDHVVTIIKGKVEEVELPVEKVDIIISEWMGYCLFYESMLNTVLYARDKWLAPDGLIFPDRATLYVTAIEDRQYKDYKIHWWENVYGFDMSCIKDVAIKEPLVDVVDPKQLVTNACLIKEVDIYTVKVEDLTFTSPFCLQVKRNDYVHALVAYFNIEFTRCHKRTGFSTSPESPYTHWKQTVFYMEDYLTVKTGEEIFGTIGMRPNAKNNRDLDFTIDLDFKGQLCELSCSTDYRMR

How the values were obtained:
[1] = target: HA-cGAS (human) (UniProt Q8N884); experiment: co-IP; HA immunoprecipitation from lysates of HEK293T cells co-expressing HA-cGAS and GFP-PRMT constructs; EBC lysis buffer (50 mM Tris pH 7.5, 120 mM NaCl, 0.5% NP-40), 4 °C, four washes with NETN buffer; immunoblot
[2] = target: Endogenous PRMT1 (human (endogenous in HeLa)) (UniProt Q99873); experiment: co-IP; immunoprecipitation from HeLa cells with PRMT1 antibody or control IgG; endogenous proteins; immunoblot

| Substance | binding [1] | binding [2] |
| --- | --- | --- |
| GFP-PRMT1-E171A (from UniProt Q99873 1-371) (enzyme) | no binding |  |
| GFP-PRMT1-G98R (from UniProt Q99873 1-371) (enzyme) | no binding |  |
| endogenous cGAS (from UniProt Q8N884 1-522) |  | binds |
| GFP-PRMT1 (from UniProt Q99873 1-371) (enzyme) | binds |  |
| GFP-PRMT1-E162Q (from UniProt Q99873 1-371) (enzyme) | no binding |  |
